About 14,000 (4.5%) of roughly 310,000 compounds showed an effect of 50% or more. The effect is printed as a negative number. The list shows a part of the results.
molecular target: human ether-à-go-go-related gene (hERG) potassium channel (human, UniProt Q12809); test: primary screen, population patch clamp on CHO cells stably expressing hERG
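Note: peak tail current of the secondary pulse compared with the same well before compound.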

Sequence of human ether-à-go-go-related gene (hERG) potassium channel (Q12809 whole entry, looked up): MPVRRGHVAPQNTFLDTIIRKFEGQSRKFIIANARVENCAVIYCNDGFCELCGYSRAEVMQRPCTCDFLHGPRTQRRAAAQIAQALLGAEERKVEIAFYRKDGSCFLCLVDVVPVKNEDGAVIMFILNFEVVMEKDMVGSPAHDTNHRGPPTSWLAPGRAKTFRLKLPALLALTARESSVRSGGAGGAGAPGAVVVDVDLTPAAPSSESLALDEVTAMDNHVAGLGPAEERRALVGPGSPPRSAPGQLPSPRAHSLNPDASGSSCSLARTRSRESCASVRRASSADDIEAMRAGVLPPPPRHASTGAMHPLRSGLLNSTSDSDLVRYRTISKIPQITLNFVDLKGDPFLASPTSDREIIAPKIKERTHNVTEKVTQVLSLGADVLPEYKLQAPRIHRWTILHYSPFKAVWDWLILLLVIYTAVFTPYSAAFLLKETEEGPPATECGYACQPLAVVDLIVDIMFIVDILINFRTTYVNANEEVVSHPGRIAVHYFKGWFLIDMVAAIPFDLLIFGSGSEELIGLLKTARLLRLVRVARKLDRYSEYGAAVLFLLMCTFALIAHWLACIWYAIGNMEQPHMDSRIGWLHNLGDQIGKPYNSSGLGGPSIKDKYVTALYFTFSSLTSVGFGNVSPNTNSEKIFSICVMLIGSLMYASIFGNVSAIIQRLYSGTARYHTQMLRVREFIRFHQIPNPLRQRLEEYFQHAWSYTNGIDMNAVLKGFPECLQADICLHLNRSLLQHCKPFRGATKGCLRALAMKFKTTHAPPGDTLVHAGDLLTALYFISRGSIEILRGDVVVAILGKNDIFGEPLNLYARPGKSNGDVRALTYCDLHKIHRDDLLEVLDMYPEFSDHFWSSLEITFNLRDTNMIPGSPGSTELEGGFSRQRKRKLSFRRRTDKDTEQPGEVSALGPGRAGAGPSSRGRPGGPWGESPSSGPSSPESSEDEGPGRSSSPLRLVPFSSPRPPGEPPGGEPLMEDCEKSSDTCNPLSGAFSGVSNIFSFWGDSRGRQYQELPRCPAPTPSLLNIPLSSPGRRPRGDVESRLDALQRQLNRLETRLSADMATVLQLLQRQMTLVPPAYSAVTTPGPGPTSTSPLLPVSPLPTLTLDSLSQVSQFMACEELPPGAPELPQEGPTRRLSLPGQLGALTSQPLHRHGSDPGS

Going from COc1ccc(OCC(=O)N2CCN(c3nnc(-c4ccc(C)cc4)c4ccccc34)CC2)cc1 to COc1ccc(NC(=O)CSc2ccc(-c3ccccn3)nn2)cc1OC, the “hERG current change (%, negative = inhibition) at 10uM” value rises from -44.9% to -23.1%.

Going from O=C(OCCCCN1C(=O)c2ccccc2C1=O)c1n[nH]c2ccccc12 to O=C(Cn1nnc(-c2ccccc2)n1)NCc1ccccc1, the “hERG current change (%, negative = inhibition) at 10uM” value falls from -8.86% to -9.05%.

First: Cc1cc(C)c(NC(=O)CCCN2CCOCC2)c(C)c1
Second: Cc1onc(-c2c(Cl)cccc2Cl)c1C(=O)N=C(N)N1CCOCC1
The “hERG current change (%, negative = inhibition) at 10uM” value of the first is higher: 13.1% for the first, 2.58% for the second.

First: CCOC(=O)C1=NNC2(c3ccc(Cl)cc3)C(=O)N(c3ccc(C)cc3)C(=O)C12 (stereo not drawn)
Second: Cc1ccc(/C(N)=N/OC(=O)CSc2ccccc2)cc1
The “hERG current change (%, negative = inhibition) at 10uM” value of the first is higher: 11.9% for the first, -5.49% for the second.

Compared with CCC(C)(C)NC(=O)C(c1ccc(OC)cc1)N(C(=O)CCC(=O)Nc1cc(C)on1)c1ccc(OC)c(OC)c1 (stereo not drawn), COc1ccc(N(C(C)=O)S(=O)(=O)c2cc(OC)ccc2OC)cc1 is lower in “hERG current change (%, negative = inhibition) at 10uM” value: 3.38% for the first, -7.46% for the second.

Going from O=C(CN(Cc1ccco1)S(=O)(=O)c1ccccc1)N/N=C/c1ccccc1C(=O)O to O=C(NCCS(=O)(=O)NCc1ccco1)c1ccccc1, the “hERG current change (%, negative = inhibition) at 10uM” value falls from 19.6% to 3.68%.

Compared with CCOC(=O)C1=NOC(CNC(=O)C2=NOC(CNC(=O)c3c(-c4ccccc4Cl)noc3C)C2)C1 (stereo not drawn), CC(=O)C1=C(C)Nc2ncnn2C1c1ccccc1Cl (stereo not drawn) is higher in “hERG current change (%, negative = inhibition) at 10uM” value: -12.1% for the first, -7.14% for the second.

Going from CCCCc1c(O)nc(SCC(=O)O)[nH]c1=O to CCCCCCCSc1nnc(N)s1, the “hERG current change (%, negative = inhibition) at 10uM” value falls from 40.9% to 9.7%.

Going from COc1ccc(CCNC(=O)Cc2ccsc2)cc1 to COc1ccc(C(=O)NCC(=O)N/N=C/c2cccnc2)cc1, the “hERG current change (%, negative = inhibition) at 10uM” value falls from 18.9% to 18.1%.

Going from COc1ccc(/C=C/C(=O)Nc2ccc3nc4n(c(=O)c3c2)CCCC4)cc1OC to COc1cccc(NC(=S)NC(C)c2ccc(OC)c(OC)c2)c1 (stereo not drawn), the “hERG current change (%, negative = inhibition) at 10uM” value rises from -8.54% to -4.17%.

First: O=C(Nc1cccc(NC(=O)c2ccccc2F)c1)c1ccccc1
Second: COc1ccc([N+](=O)[O-])cc1NC(=O)CC(c1ccccc1)c1ccccc1
The “hERG current change (%, negative = inhibition) at 10uM” value of the first is higher: 8.73% for the first, -2.25% for the second.

Compared with CCN1CCc2c(sc(NC(=O)C3CCCCC3)c2C(=O)OC)C1.Cl, NC(=O)c1c(NC(=O)c2ccc(S(=O)(=O)N3CCOCC3)cc2)sc2c1CCCCC2 is higher in “hERG current change (%, negative = inhibition) at 10uM” value: -17.4% for the first, -4.43% for the second.

Compared with O=C(c1cnsn1)N1CCN(c2ccccn2)CC1, O=C(c1cccc([N+](=O)[O-])c1)N1CCN(C/C=C/c2ccccc2)CC1 is lower in “hERG current change (%, negative = inhibition) at 10uM” value: 10.6% for the first, -65.9% for the second.

First: C/C(=N\N=C1/NC(=O)C(C)S1)c1ccc([N+](=O)[O-])cc1 (stereo not drawn)
Second: COc1ccc([N+](=O)[O-])cc1NC(=O)CSc1ccccc1
The “hERG current change (%, negative = inhibition) at 10uM” value of the first is higher: -1.14% for the first, -13.8% for the second.

First: CCn1c(CCc2ccccc2)n[nH]c1=S
Second: CCN(CC)CCSc1nnc2c3ccccc3n(Cc3ccccc3)c2n1
The “hERG current change (%, negative = inhibition) at 10uM” value of the first is higher: 14.9% for the first, -75.4% for the second.

Compared with CCc1cccc(OCC(=O)N(C)CC(=O)Nc2cccc(F)c2)c1, CCCc1ccc(OCc2ccc(C(=O)N/N=C/c3cccc([N+](=O)[O-])c3)o2)c(OC)c1 is higher in “hERG current change (%, negative = inhibition) at 10uM” value: -9.84% for the first, 5.51% for the second.

Compared with COc1ccc2cc(C3c4cc(OC)c(OC)cc4CCN3C(=O)c3ccco3)c(=O)[nH]c2c1 (stereo not drawn), COc1ccc(OC)c(/C=C(\C)C(=O)c2c(C)cc(C)[nH]c2=O)c1 is higher in “hERG current change (%, negative = inhibition) at 10uM” value: -34.2% for the first, 7.34% for the second.

Compared with N#CCC(=O)N/N=C\c1ccc(OC/C=C/c2ccccc2)cc1, COc1ccc(/C=N/Nc2cc(C)nc(N)n2)cc1 is lower in “hERG current change (%, negative = inhibition) at 10uM” value: 14.4% for the first, -32.1% for the second.

Going from CS(=O)(=O)Nc1ccc(C(=O)Nc2ccc3c(c2)OCCO3)cc1 to CCN(CC)S(=O)(=O)c1ccc(NC(=O)[C@@H](NC(=O)c2cc(OC)cc(OC)c2)C(C)C)cc1, the “hERG current change (%, negative = inhibition) at 10uM” value rises from 3.97% to 7.73%.

First: C/C=C/C=C/C(=O)N1CC2(CC(c3cccc(NC(=O)/C=C/C)c3)=NO2)C[C@@H]1C(N)=O (stereo partly drawn)
Second: Cc1cccc(C(=O)n2c(=S)nc3cc(C)ccn32)c1
The “hERG current change (%, negative = inhibition) at 10uM” value of the first is lower: 2.75% for the first, 19.5% for the second.

Compared with Cc1cccc(NC(=O)c2cccs2)n1, Oc1ccccc1/C=N/NC(=S)NC1CC2C=CC1C2 (stereo not drawn) is lower in “hERG current change (%, negative = inhibition) at 10uM” value: 9.15% for the first, 4% for the second.

Compared with CCOc1ccc2c(c1)[N+](C)(C)C(C)(C)C=C2C.[I-], CCOc1ccc(Br)cc1S(=O)(=O)N1CC(C)OC(C)C1 (stereo not drawn) is lower in “hERG current change (%, negative = inhibition) at 10uM” value: 9.24% for the first, -37.4% for the second.

CCOC(=O)c1ccc(S(=O)(=O)N2CCN(CC3CC=CCC3)CC2)cc1.O=C(O)C(=O)O (stereo not drawn) was tested, and the “hERG current change (%, negative = inhibition) at 10uM” value was -3.89%.

Reference: paper PMC4336329 (PLoS ONE, 2015)
